# According to publication PMC9911399, “Two distinct binding modes provide the RNA-binding protein RbFox with extraordinary sequence specificity”:
# Residue numbers refer to the chain shown, from its start. The list shows a part of the results.
# T1: RBFOX1 RRM (Homo sapiens, UniProt Q9NWB1 109-208)
# T1 sequence: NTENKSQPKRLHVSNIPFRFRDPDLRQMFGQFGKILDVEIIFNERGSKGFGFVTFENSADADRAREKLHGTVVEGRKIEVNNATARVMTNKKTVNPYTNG
# B1: CCUUGCU (DNA:RNA)
# RNA: GGGAGACCGGAAUUCAGAUUGUCCCCUUGCUUUAAAUCCCGUCGUAGCCACCA
# DNA 1: CAATCTGAATTCCGGTCTCCC
# DNA 2: TGGTGGCTACGACGGGATT
# B2: GCAUGUC (DNA:RNA)
# RNA: B1 RNA with C25G, U27A, C30U, U31C
# DNA 1: CAATCTGAATTCCGGTCTCCC
# DNA 2: TGGTGGCTACGACGGGATT
# B3: UUCAUUA (DNA:RNA)
# RNA: GGGAGACCGGAAUUCAGAUUGUCCUUCAUUAUUAAAUCCCGUCGUAGCCACCA
# DNA 1: CAATCTGAATTCCGGTCTCCC
# DNA 2: TGGTGGCTACGACGGGATT
# B4: UUCCUUG (DNA:RNA)
# RNA: B3 RNA with A28C, A31G
# DNA 1: CAATCTGAATTCCGGTCTCCC
# DNA 2: TGGTGGCTACGACGGGATT
# B5: UAACCGU (DNA:RNA)
# RNA: B1 RNA with C25U, C26A, U27A, U28C, G29C, C30G
# DNA 1: CAATCTGAATTCCGGTCTCCC
# DNA 2: TGGTGGCTACGACGGGATT
# B6: CGGACGC (DNA:RNA)
# RNA: B1 RNA with C26G, U27G, U28A, G29C, C30G, U31C
# DNA 1: CAATCTGAATTCCGGTCTCCC
# DNA 2: TGGTGGCTACGACGGGATT
# B7: AUCGCCG (DNA:RNA)
# RNA: B3 RNA with U25A, A28G, U29C, U30C, A31G
# DNA 1: CAATCTGAATTCCGGTCTCCC
# DNA 2: TGGTGGCTACGACGGGATT
# B8: UCGGCAU (DNA:RNA)
# RNA: B1 RNA with C25U, U27G, U28G, G29C, C30A
# DNA 1: CAATCTGAATTCCGGTCTCCC
# DNA 2: TGGTGGCTACGACGGGATT
# B9: ACUUUGC (DNA:RNA)
# RNA: B1 RNA with C25A, G29U, C30G, U31C
# DNA 1: CAATCTGAATTCCGGTCTCCC
# DNA 2: TGGTGGCTACGACGGGATT
# B10: UUAGCAC (DNA:RNA)
# RNA: B3 RNA with C27A, A28G, U29C, U30A, A31C
# DNA 1: CAATCTGAATTCCGGTCTCCC
# DNA 2: TGGTGGCTACGACGGGATT
# B11: CUUAUAG (DNA:RNA)
# RNA: B3 RNA with U25C, C27U, U30A, A31G
# DNA 1: CAATCTGAATTCCGGTCTCCC
# DNA 2: TGGTGGCTACGACGGGATT
# B12: GCCGUCC (DNA:RNA)
# RNA: B1 RNA with C25G, U27C, U28G, G29U, U31C
# DNA 1: CAATCTGAATTCCGGTCTCCC
# DNA 2: TGGTGGCTACGACGGGATT
# B13: CGGCCAU (DNA:RNA)
# RNA: B1 RNA with C26G, U27G, U28C, G29C, C30A
# DNA 1: CAATCTGAATTCCGGTCTCCC
# DNA 2: TGGTGGCTACGACGGGATT
# B14: UAACGCU (DNA:RNA)
# RNA: B1 RNA with C25U, C26A, U27A, U28C
# DNA 1: CAATCTGAATTCCGGTCTCCC
# DNA 2: TGGTGGCTACGACGGGATT
# B15: AGGUUCA (DNA:RNA)
# RNA: B1 RNA with C25A, C26G, U27G, G29U, U31A
# DNA 1: CAATCTGAATTCCGGTCTCCC
# DNA 2: TGGTGGCTACGACGGGATT
# B16: UUUAGCU (DNA:RNA)
# RNA: B1 RNA with C25U, C26U, U28A
# DNA 1: CAATCTGAATTCCGGTCTCCC
# DNA 2: TGGTGGCTACGACGGGATT
# B17: UAGUAAU (DNA:RNA)
# RNA: B1 RNA with C25U, C26A, U27G, G29A, C30A
# DNA 1: CAATCTGAATTCCGGTCTCCC
# DNA 2: TGGTGGCTACGACGGGATT
# B18: GCCGCUA (DNA:RNA)
# RNA: B3 RNA with U25G, U26C, A28G, U29C
# DNA 1: CAATCTGAATTCCGGTCTCCC
# DNA 2: TGGTGGCTACGACGGGATT
# B19: UCCUUCG (DNA:RNA)
# RNA: B1 RNA with C25U, U27C, G29U, U31G
# DNA 1: CAATCTGAATTCCGGTCTCCC
# DNA 2: TGGTGGCTACGACGGGATT
# B20: CCGGCCC (DNA:RNA)
# RNA: B1 RNA with U27G, U28G, G29C, U31C
# DNA 1: CAATCTGAATTCCGGTCTCCC
# DNA 2: TGGTGGCTACGACGGGATT
# B21: GUAAAUA (DNA:RNA)
# RNA: B3 RNA with U25G, C27A, U29A
# DNA 1: CAATCTGAATTCCGGTCTCCC
# DNA 2: TGGTGGCTACGACGGGATT
# B22: ACUUCGA (DNA:RNA)
# RNA: B1 RNA with C25A, G29C, C30G, U31A
# DNA 1: CAATCTGAATTCCGGTCTCCC
# DNA 2: TGGTGGCTACGACGGGATT
# B23: UACCACG (DNA:RNA)
# RNA: B3 RNA with U26A, A28C, U29A, U30C, A31G
# DNA 1: CAATCTGAATTCCGGTCTCCC
# DNA 2: TGGTGGCTACGACGGGATT
# B24: GGUACAC (DNA:RNA)
# RNA: B1 RNA with C25G, C26G, U28A, G29C, C30A, U31C
# DNA 1: CAATCTGAATTCCGGTCTCCC
# DNA 2: TGGTGGCTACGACGGGATT
# B25: CGCCGUU (DNA:RNA)
# RNA: B1 RNA with C26G, U27C, U28C, C30U
# DNA 1: CAATCTGAATTCCGGTCTCCC
# DNA 2: TGGTGGCTACGACGGGATT
# B26: GGUUGCA (DNA:RNA)
# RNA: B1 RNA with C25G, C26G, U31A
# DNA 1: CAATCTGAATTCCGGTCTCCC
# DNA 2: TGGTGGCTACGACGGGATT
# B27: ACCGAUG (DNA:RNA)
# RNA: B3 RNA with U25A, U26C, A28G, U29A, A31G
# DNA 1: CAATCTGAATTCCGGTCTCCC
# DNA 2: TGGTGGCTACGACGGGATT
# B28: AGUAAGA (DNA:RNA)
# RNA: B3 RNA with U25A, U26G, C27U, U29A, U30G
# DNA 1: CAATCTGAATTCCGGTCTCCC
# DNA 2: TGGTGGCTACGACGGGATT
# B29: UUGAUUU (DNA:RNA)
# RNA: B3 RNA with C27G, A31U
# DNA 1: CAATCTGAATTCCGGTCTCCC
# DNA 2: TGGTGGCTACGACGGGATT
# B30: UUUCAUC (DNA:RNA)
# RNA: B3 RNA with C27U, A28C, U29A, A31C
# DNA 1: CAATCTGAATTCCGGTCTCCC
# DNA 2: TGGTGGCTACGACGGGATT
# B31: ACAGCUG (DNA:RNA)
# RNA: B1 RNA with C25A, U27A, U28G, G29C, C30U, U31G
# DNA 1: CAATCTGAATTCCGGTCTCCC
# DNA 2: TGGTGGCTACGACGGGATT
# Target: T1, RBFOX1 RRM
# Assay: EMSA; HiTS-Eq, 1 nM pool, 10 min; buffer printed only for the single-RNA assays: 10 mM Tris pH 7.5, 150 mM NaCl, 3.4 mM EDTA, 0.001% NP-40, 30 C
# Settings: tags: His6 N-terminal (pET28a); label: 5' 32P
# In short: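 Relative association constants, normalised to the cognate motif, were derived by comparing read counts of each RNA species with those of the control reaction. The RNA sequenced was the free fraction, separated by 8% native PAGE after a 10 min equilibration in 50 µL of 1 nM 5′-radiolabelled RNA (7 randomized nucleotides) with increasing concentrations of purified wild-type or mutant RbFox RRM.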
row,Binder,binding signal
1,B1,0.0153 KA relative to UGCAUGU
2,B2,0.689 KA relative to UGCAUGU
3,B3,0.000726 KA relative to UGCAUGU
4,B4,0.00951 KA relative to UGCAUGU
5,B5,0.00391 KA relative to UGCAUGU
6,B6,0.0184 KA relative to UGCAUGU
7,B7,0.00734 KA relative to UGCAUGU
8,B8,0.0191 KA relative to UGCAUGU
9,B9,0.0114 KA relative to UGCAUGU
10,B10,0.011 KA relative to UGCAUGU
11,B11,0.00503 KA relative to UGCAUGU
12,B12,0.0117 KA relative to UGCAUGU
13,B13,0.00516 KA relative to UGCAUGU
14,B14,0.00788 KA relative to UGCAUGU
15,B15,0.00904 KA relative to UGCAUGU
16,B16,0.0121 KA relative to UGCAUGU

row,Binder,binding signal
1,B17,0.00829 KA relative to UGCAUGU
2,B18,0.0149 KA relative to UGCAUGU
3,B19,0.0178 KA relative to UGCAUGU
4,B20,0.0179 KA relative to UGCAUGU
5,B21,0.000978 KA relative to UGCAUGU
6,B22,0.0122 KA relative to UGCAUGU
7,B23,0.00532 KA relative to UGCAUGU
8,B24,0.0068 KA relative to UGCAUGU
9,B25,0.00939 KA relative to UGCAUGU
10,B26,0.0167 KA relative to UGCAUGU
11,B27,0.00979 KA relative to UGCAUGU
12,B28,0.0136 KA relative to UGCAUGU
13,B29,0.0174 KA relative to UGCAUGU
14,B30,0.00526 KA relative to UGCAUGU
15,B31,0.00547 KA relative to UGCAUGU
